Results published in PubChem BioAssay AID1345083 (National Center for Advancing Translational Sciences (NCATS), 2018).
Screen size: about 94,000 compounds; about 6,200 (6.6%) were called active. Inconclusive means that the source gave no clear call. Such entries were picked first, then a sample of the others. Calls come from the whole dose curve; as a rule, active = well fitted inhibition curve with a large enough effect; inconclusive = small, poorly fitted or top-dose-only effect; inactive = flat fitted curve, though single readings scatter. Potencies beside an inconclusive call are fits to weak or partial responses and may not hold up.
% is set by controls: 0 for no effect and ±100 for the full control effect; potency is the fitted concentration of half-maximal effect; tags give direction and shape of the fitted curve.

Assay: Cytotoxic Profiling in HEK 293 Cell Line of Diverse Libraries Using Quantitative High-Throughput Screening; note: nearly all actives have a fitted effect of over 60% in size
Conditions: HEK 293 viability, ATP luminescence (CellTiter-Glo), 48-72 h; activity change, negative = cytotoxicity: at 115 µM (top of the series) unless noted; series mostly up to 115 µM
Summary of the method: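 CellTiter-Glo luminescence (cellular ATP) was read after 48 or 72 hr of compound exposure at 37 degree Celsius. Cells were HEK 293 plated at 250 cells/well.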
With `Cc1cccc(C)c1-c1cc(C(=O)NCc2ccc(C(F)(F)F)cc2)c2cnn(C)c2n1` the Potency was active: 22.4 µM. For `CCc1cc(CN2CCCC(C(=O)Nc3ccc(-n4ccnc4C)cc3)C2)on1` (centres undefined), the Potency was inconclusive: 50.1 µM [inhibitor, partial curve, poor fit]. For `COc1ccc(C)cc1NC(=O)CN1C(=O)C(c2ccccc2)=NC12CCCC2`, the Potency was inconclusive: 79.4 µM [inhibitor, partial curve, poor fit]. In the case of `COc1ccccc1CC(=O)NC1CCN(c2cc(-c3ccccc3)[nH]n2)C1` (centres undefined), the Potency was inconclusive: 79.4 µM [inhibitor, partial curve]. In the case of `Cc1cc(CNC(=O)c2cc(-c3ccc(N4CCOCC4)cc3)cc3c2OCCN3C)no1`, the Potency was inconclusive: 50.1 µM [inhibitor, partial curve, poor fit]. In the case of `COc1ccc(C(=O)NCC(=O)N2CCCCCNC(=O)CC2c2ccccc2)c(OC)c1` (centres undefined), the “activity change, negative = cytotoxicity” value was inactive: 3.56%. In the case of `COc1ccc(C(=O)N[C@H]2CO[C@H]3[C@@H]2OC[C@@H]3n2cc(-c3ccccc3)nn2)cc1`, the Potency was inconclusive: 126 µM [inhibitor, single point]. In the case of `O=C(NCC1CC1)c1ccc2nnc(-c3cc[nH]c3)n2c1`, the “outcome” value was “inactive [at 172 µM]”. For `Cc1nn(-c2ccc(F)cc2)c(Oc2ccccc2F)c1CCC(=O)NCc1ccco1`, the Potency was inconclusive: 56.2 µM [inhibitor, partial curve, poor fit]. With `O=C(NC1CCCCC1)c1cc2n(n1)CC(c1ccc(Cl)cc1)OC2` (centres undefined) the Potency was inconclusive: 50.1 µM [inhibitor, partial curve, poor fit]. With `O=C(C1CCCN([S+](=O)([O-])c2cccs2)C1)N1CCC(c2nc3ccncc3[nH]2)CC1` (centres undefined) the “activity change, negative = cytotoxicity” value was inactive: 3.05%. With `CCn1ccc(C(=O)N2C[C@H]3CNC(=O)[C@]34CCCC[C@@H]24)n1` the “activity change, negative = cytotoxicity” value was inactive: 2.67%. For `CN(C)Cc1cccc(-c2cc3c(ccn3Cc3cccnc3)c(C3=CCOCC3)n2)c1`, the Potency was active: 35.5 µM. With `O=C(c1ccco1)N1CCC(Oc2ccccc2-c2nc(-c3ccccc3)no2)C1` (centres undefined) the Potency was inconclusive: 50.1 µM [inhibitor, partial curve, poor fit]. In the case of `Cc1ccc2[nH]c(=O)c(CN3CCCN(c4ccncc4)CC3)cc2c1`, the Potency was inconclusive: 89.1 µM [inhibitor, single point]. In the case of `COc1ccc(CCCNc2cc(C3CC(O)C3)ncn2)cc1` (centres undefined), the Potency was inconclusive: 25.1 µM [inhibitor, full curve]. With `COc1ccccc1-c1nc(-c2c(C)noc2C)cc2cc(CN(C)C)oc12` the Potency was inconclusive: 100 µM [inhibitor, partial curve]. With `COCC1CN(C2CCC2)CC12CCN(Cc1ccc(OC)c(OC)c1)CC2` (centres undefined) the Potency was inconclusive: 50.1 µM [inhibitor, partial curve, poor fit]. For `COc1ccc(CN2CCCC(c3cc(=O)[nH]c(C)n3)C2)c(OC)c1C` (centres undefined), the Potency was active: 44.7 µM. With `CCOC(=O)C1(Cc2cccc(OC)c2)CCNCC1` the Potency was inconclusive: 89.1 µM [inhibitor, single point]. For `O=C(Nc1cccnc1)c1nc2c(o1)CCN(Cc1cccs1)CC2`, the Potency was active: 89.1 µM. In the case of `CCOc1ccccc1C(=O)N[C@@H]1CN(Cc2ccncc2)C[C@H]1CN(C)C`, the Potency was inconclusive: 50.1 µM [inhibitor, partial curve, poor fit]. In the case of `Cc1ccc(CN2CC3(COCC2=O)CN(c2ccccc2)C3)cc1C`, the Potency was inconclusive: 112 µM [inhibitor, partial curve, poor fit]. For `N#Cc1cccc(-c2ncc3c(n2)OCCN(Cc2ccc(F)cc2F)C3=O)c1`, the Potency was inconclusive: 112 µM [inhibitor, partial curve]. In the case of `CC(C)CNC(=O)CC(c1cccc([N+](=O)[O-])c1)c1c[nH]c2ccccc12` (centres undefined), the Potency was active: 79.4 µM. In the case of `COc1ccc(-c2cc(N3CCCC(NC(=O)c4ccoc4)C3)n[nH]2)cc1` (centres undefined), the Potency was inconclusive: 35.5 µM [inhibitor, partial curve]. In the case of `COc1ccccc1-c1ccc2ncn(-c3ccc(F)cc3F)c(=O)c2n1`, the Potency was inconclusive: 70.8 µM [inhibitor, full curve, poor fit]. For `COc1ccc(Cl)cc1C(=O)N1CCC(Oc2nccnc2N(C)C)C1` (centres undefined), the Potency was inconclusive: 89.1 µM [inhibitor, single point]. For `COc1ccc(Cl)cc1C(=O)N1CCCN(c2cc(-c3ccc(F)cc3)[nH]n2)CC1`, the Potency was inconclusive: 50.1 µM [inhibitor, partial curve, poor fit]. For `CC(=O)N1CCC2(CC1)CN(C(=O)c1ccc(Cl)cc1)CCO2`, the Potency was inconclusive: 112 µM [inhibitor, single point]. For `COc1ccc(OC)c(CN2CCCn3nc(C)c(-c4cccnc4N4CCOCC4)c32)c1`, the “activity change, negative = cytotoxicity” value was inactive: -28.6%. For `O=C1C(N2CCN(S(=O)(=O)c3cccs3)CC2)CCN1Cc1cccnc1` (centres undefined), the “activity change, negative = cytotoxicity” value was inactive: -30%. In the case of `O=C(N[C@H](c1ccccn1)C1CC(O)C1)C1(c2ccc(Cl)cc2)CCC1` (some centres undefined), the Potency was inconclusive: 35.5 µM [inhibitor, single point]. With `Cc1ccccc1C(=O)N(C)C(C)c1cccs1` (centres undefined) the Potency was inconclusive: 50.1 µM [inhibitor, partial curve, poor fit]. With `O=C(Cn1cccc1-c1nc(-c2ccccc2)no1)N1CCc2ccccc21` the Potency was inconclusive: 56.2 µM [inhibitor, partial curve, poor fit]. With `O=C(C[C@@H]1CCNC[C@@H]1Cc1cc(CSc2ccccc2)on1)NCc1ccc(F)cc1` the Potency was inconclusive: 79.4 µM [inhibitor, partial curve, poor fit]. For `C[S+](=O)([O-])N1Cc2ccccc2CC2(CCCCN2CC2CCNCC2)C1` (centres undefined), the “activity change, negative = cytotoxicity” value was inactive: -27.7%. In the case of `Cc1cccc(C(=O)N2CCCC2c2nc(C3CCOCC3)no2)c1` (centres undefined), the “activity change, negative = cytotoxicity” value was inactive: -2.06%. With `CN1[C@@H](CCC(=O)NCc2ccccc2)CNC(=O)[C@@H]2[C@H]1CCN2Cc1ncc[nH]1` the Potency was inconclusive: 112 µM [inhibitor, partial curve, poor fit]. In the case of `CCC1Oc2ccc(NC(=O)c3ccc(C#N)cc3)cc2CN(Cc2ccccc2F)C1=O` (centres undefined), the Potency was active: 44.7 µM. For `COCCn1ncc(N2CCCC(CC(=O)N(C)CCc3ccccn3)C2)cc1=O` (centres undefined), the “activity change, negative = cytotoxicity” value was inactive: -0.319%. In the case of `CC1=C[C@@H](CNC(=O)C(C)(C)C)[C@H](C(C)C)C[C@H]1Cc1nnc(-c2ccccc2F)o1`, the Potency was active: 31.6 µM. With `Cc1ccccc1-c1cn(C)c(=O)n2cc(COc3ccc(Cl)cc3)nc12` the Potency was inconclusive: 79.4 µM [inhibitor, partial curve]. In the case of `OC1(c2csc(CN3CCN(c4ccccn4)CC3)n2)CCNCC1`, the Potency was inconclusive: 31.6 µM [inhibitor, full curve]. For `O=C(Cc1c(F)cccc1Cl)N1CCc2n[nH]c(=O)n2CC1`, the Potency was inconclusive: 89.1 µM [inhibitor, single point]. In the case of `CC(=O)Nc1ccc(NC(=O)Cn2ccn3nc(-c4ccc(F)cc4)c(CO)c3c2=O)cc1`, the “activity change, negative = cytotoxicity” value was inactive: 2.57%. In the case of `O=C(Cc1cccc(Cl)c1)N1CCC2(COc3ccncc3[S+](=O)([O-])N2)C1` (centres undefined), the “activity change, negative = cytotoxicity” value was inactive: -17%. In the case of `CS(=O)(=O)N1CCCN(C(=O)Cc2ccc(OC(F)(F)F)cc2)c2ccccc21`, the Potency was inconclusive: 10 µM [inhibitor, full curve, poor fit]. With `COc1ccc(-c2cnc(NC(=O)Cc3ccc(F)cc3)c3c2CCO3)cn1` the Potency was inconclusive: 100 µM [inhibitor, partial curve]. In the case of `Cc1ccccc1N(C)C1CN([S+](=O)([O-])c2ccccc2)C1`, the Potency was inconclusive: 100 µM [inhibitor, partial curve, poor fit]. With `CC1(C(=O)N2C[C@@H](Oc3cccnc3)C[C@H]2C(=O)N2CCCC2)CCCCC1` the Potency was inconclusive: 31.6 µM [inhibitor, partial curve, poor fit]. In the case of `Cc1noc(-c2ccn3c(CNC(=O)c4ccccc4Cl)nnc3c2)n1`, the Potency was inconclusive: 79.4 µM [inhibitor, partial curve, poor fit]. For `CCOC(=O)CN1C(=O)CN(S(C)(=O)=O)CCC(OC)c2ccccc21` (centres undefined), the “activity change, negative = cytotoxicity” value was inactive: -1.34%. With `Cc1c(C(=O)N(C)Cc2cc(-c3ccccc3)no2)oc2c(F)cccc12` the Potency was inconclusive: 100 µM [inhibitor, single point]. With `CC(C)c1nnc(C2CN(C(=O)c3ccc(OC(F)(F)F)cc3)CC23CCOCC3)o1` (centres undefined) the “activity change, negative = cytotoxicity” value was inactive: -8.93%. With `O=C(C1CCCN([S+](=O)([O-])c2cccs2)C1)N1CCC(c2nc3ncccc3[nH]2)CC1` (centres undefined) the Potency was inconclusive: 50.1 µM [inhibitor, partial curve, poor fit]. In the case of `Cn1ncc2c(C(=O)NCCc3ccc(Cl)cc3)cc(C(C)(C)C)nc21`, the Potency was inconclusive: 79.4 µM [inhibitor, partial curve, poor fit]. In the case of `Cc1ccc(C(=O)N2CCC3(CC(c4cccc(C(F)(F)F)c4)=NO3)C2)cc1` (centres undefined), the Potency was inconclusive: 79.4 µM [inhibitor, partial curve, poor fit]. In the case of `Cc1ccc(S(=O)(=O)NC[C@H]2O[C@@H](CO)[C@@H](O)[C@H]2N2CCN(c3cccc(C(F)(F)F)c3)CC2)cc1`, the Potency was inconclusive: 50.1 µM [inhibitor, partial curve, poor fit]. With `COCC1CN(S(=O)(=O)c2ccc(F)cc2)CC12CCNCC2` (centres undefined) the Potency was inconclusive: 89.1 µM [inhibitor, single point]. For `CCN1CCN(C(=O)CC2CCCN(c3cnn(CCOC)c(=O)c3)C2)CC1` (centres undefined), the “activity change, negative = cytotoxicity” value was inactive: 0.949%. In the case of `O=C(c1ccccc1Cl)N1CCCC(C(=O)N2CCCC(c3nc4ncccc4[nH]3)C2)C1` (centres undefined), the “activity change, negative = cytotoxicity” value was inactive: 0.85%. In the case of `Cc1ccc(S(=O)(=O)N2CCCC(CCC(=O)O)C2)cc1` (centres undefined), the “activity change, negative = cytotoxicity” value was inactive: 6.77%. For `CC1(C(=O)N2CCC(c3ccccc3)CC2)CCc2cnc(N3CCOCC3)nc21` (centres undefined), the Potency was inconclusive: 89.1 µM [inhibitor, partial curve].
